Consider 25 molecules from publication PMC13083723 (Patterns, 2026).

SMILES strings stand for the structures. About 190 (3.5%) of roughly 5,400 compounds showed an effect of 50% or more. This is one part of the list.

The test deals with Vero-E6. The experiment in a line: primary screen, phospholipidosis by LipidTOX staining; higher = more effect of the substance. To be noted: 10 µM. The procedure, abridged: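 Drug-induced phospholipidosis detected with HCS LipidTOX Red reagent in Vero-E6 cells. Compounds tested at 10 μM, with amiodarone (10 μM) as positive control and DMSO (0.1 v/v %) as vehicle.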
Turning to `CCCC(CCC)C(=O)Nc1ccn([C@@H]2O[C@H](CO)[C@@H](O)C2(F)F)c(=O)n1`, the result_ITMP is -1.7%.

On to `O=C(Nc1ccccc1-c1cn2c(CN3CCNCC3)csc2n1)c1cnc2ccccc2n1`, for which the result_ITMP is -1.16%.

Regarding `CC(C)(C)NCC(O)COc1cccc2c1CCC(=O)N2` (stereo not shown), the result_ITMP was -0.45%.

As to `CNC(=O)c1cc(Oc2ccc(NC(=O)Nc3ccc(Cl)c(C(F)(F)F)c3)c(F)c2)ccn1`, the result_ITMP was -4.14%.

Take `C/C=C1\C(=O)C[C@H]2[C@@H]3CCC4=CC(=O)CC[C@]4(C)[C@H]3CC[C@]12C`: the result_ITMP is reported as -1.45%.

For the molecule `CC(C(=O)OC1CC2CCC(C1)N2C)c1ccc(Br)cc1` (stereo not shown), the result_ITMP stood at 20.6%.

For the molecule `CN(C)CC(=O)Nc1ccc2[nH]c(=O)c3ccccc3c2c1`, the result_ITMP was determined as 0.11%.

As for `O=C([O-])c1cc2cc(Cc3cccnc3)ccc2o1`, the result_ITMP is on record as -0.95%.

Turning to `COc1cc2c(=O)c(-c3ccc(O)cc3)coc2cc1O`, the result_ITMP worked out at 3.49%.

Turning to `Cc1[nH]c2ccc(O)cc2c1CCN`, the result_ITMP came to 2.83%.

Take `CNC(=O)c1cc(Oc2ccc(NC(=O)Nc3cc(C(C)(C)C)nn3-c3ccc4ncccc4c3)c(F)c2)ccn1`: the result_ITMP is reported as 40.5%.

As to `CCC/N=C1\S/C(=C\c2ccc(OC[C@H](O)CO)c(Cl)c2)C(=O)N1c1ccccc1C`, the result_ITMP is recorded as -0.41%.

On to `OC[C@H]1O[C@H](O[C@]2(CCl)O[C@H](CCl)[C@@H](O)[C@@H]2O)[C@H](O)[C@@H](O)[C@H]1Cl`, for which the result_ITMP was 4.63%.

For the molecule `CN1C2CC[C@@H]1C[C@@H](OC(=O)[C@H](CO)c1ccccc1)C2`, the result_ITMP is given as -4.79%.

As for `Nc1nc2ccc(OC(F)(F)F)cc2s1`, the result_ITMP is reported as -2.22%.

For `COc1ccc2c(c1)c(CC(=O)O)c(C)n2C(=O)c1ccc(Cl)cc1`, the result_ITMP was -2.48%.

On to `O=C1[C@@H]2[C@H]3CC[C@H](C3)[C@@H]2C(=O)N1C[C@@H]1CCCC[C@H]1CN1CCN(c2nsc3ccccc23)CC1`, for which the result_ITMP worked out at 3.52%.

For `Cc1ncc(CN2CC=C(c3ccccc3)CC2)c(N)n1`, the result_ITMP amounted to 1.09%.

In the case of `CN(C)CCCC(=O)Nc1ccc(C(=O)Nc2cccc(Nc3ncc(Cl)c(-c4c[nH]c5ccccc45)n3)c2)cc1`, the result_ITMP is -2.25%.

Consider `Cc1oc(-c2ccccc2)nc1CCC(=O)c1ccc(CC2SC(=O)NC2=O)cc1` (stereo not shown), for which the result_ITMP is -4.88%.

As to `C[C@]1(O)C[C@@H](c2nc(-c3ccc4ccc(-c5ccccc5)nc4c3)c3c(N)nccn32)C1`, the result_ITMP is -1.51%.

Regarding `Cc1ccc(S(=O)(=O)[N-]Cl)cc1`, the result_ITMP is on record as -2.26%.

As for `O=C(C1CCCCC1)N1CC(=O)N2CCc3ccccc3C2C1` (stereo not shown), the result_ITMP is listed as -5.83%.

Consider `COC(=O)/C=C/c1cc(O)ccc1O`, for which the result_ITMP is 0.44%.

As to `CC(=O)c1ccc2c(c1)N(CCCN(C)C)c1ccccc1S2`, the result_ITMP was determined as 42.6%.
